Several values for one entry are separate records, joined by “and”; a condition that tells them apart may be missing. Identical values can stand only once. The campaign covered roughly 410,000 compounds. About 310 (0.076%) were called active. Inconclusive results, whose numbers are uncertain, are shown with a selection of clear calls. The call rests on the fitted dose curve; in most records, active means well fitted curve in the direction sought with a large enough effect; inconclusive means small, poorly fitted or top-dose-only effect; inactive means flat fitted curve, though single readings scatter. Where the call is inconclusive, the potency comes from a doubtful curve fit.
The compounds below were run against DNA dC->dU-editing enzyme APOBEC-3G (Homo sapiens) (UniProt Q9HC16) (assay: qHTS for Inhibitors of Vif-A3G Interactions: qHTS). Conditions: HeLa A3G-eYFP + Vif (tagged APOBEC3G with the HIV-1 protein that degrades it), YFP fluorescence, overnight; series mostly up to 46.1 µM.
Chain of UniProt Q9HC16 (Q9HC16 whole entry, looked up): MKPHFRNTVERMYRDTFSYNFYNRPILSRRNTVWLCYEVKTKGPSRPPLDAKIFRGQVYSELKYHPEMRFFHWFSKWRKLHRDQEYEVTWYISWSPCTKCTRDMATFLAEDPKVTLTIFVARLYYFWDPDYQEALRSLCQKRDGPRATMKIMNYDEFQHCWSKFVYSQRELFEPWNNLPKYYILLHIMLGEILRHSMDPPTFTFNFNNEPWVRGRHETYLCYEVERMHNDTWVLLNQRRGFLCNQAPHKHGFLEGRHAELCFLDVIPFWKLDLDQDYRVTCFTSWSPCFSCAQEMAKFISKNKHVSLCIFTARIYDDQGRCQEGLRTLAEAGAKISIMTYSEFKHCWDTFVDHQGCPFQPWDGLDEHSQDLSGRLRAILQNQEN
Outline: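 HeLa cells stably expressing Vif and C-terminally eYFP-tagged A3G, seeded overnight at 37 deg C, then exposed to compound by pintool overnight at 37 deg C. Rise in yellow fluorescence (Ex 488/Em 500-530, Acumen) marks blocked Vif-driven A3G degradation.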
`CCc1ccc(C2=NN(S(C)(=O)=O)C(c3cccs3)C2)cc1` (stereo unspecified) was tested, and the Potency was inconclusive: 17.8 µM [inhibitor, partial curve, poor fit]. For `COc1ccc(C2NC(=O)NC3=C2CCc2ccccc23)cc1` (stereo unspecified), the Potency was inconclusive: 14.1 µM [inhibitor, partial curve, poor fit]. In the case of `O=c1oc2cc(O)ccc2cc1-c1nc(-c2ccc(Cl)c(Cl)c2)cs1`, the Potency is reported as inconclusive: 2.51 µM [inhibitor, full curve, poor fit]. For `N#CC(c1ccccc1)(c1ncc(C(F)(F)F)cc1Cl)N1CCOCC1` (stereo unspecified), the Potency was “inactive”. With `COc1ccc(S(=O)(=O)Cc2ccccc2)cc1N` the Potency was inconclusive: 11.2 µM [inhibitor, partial curve, poor fit]. With `COc1ccc2c(C)cc(SCC(=O)N3CCOCC3)nc2c1` the Potency was inconclusive: 15.8 µM [inhibitor, single point]. `O=C(Cc1ccc(-c2ccccc2)cc1)NCc1cccnc1` was tested, and the Potency was inconclusive: 5.62 µM [inhibitor, full curve]. For `COc1cccc(C(=O)Nc2ccc(Oc3cccc(C(F)(F)F)c3)nc2)c1`, the Potency was inconclusive: 17.8 µM [inhibitor, partial curve, poor fit]. `CCOC(=O)N1CCN(Cc2nc3cc(NC(=O)CC)ccc3n2C(C)C)CC1` was tested, and the Potency was inconclusive: 1.26 µM [inhibitor, full curve, poor fit]. With `CCN(CC)c1ccc(C(=C2C=CC(=[N+](CC)CC)C=C2)c2ccccc2)cc1` the Potency was inconclusive: 2 µM [inhibitor, partial curve, poor fit]. In the case of `Cc1ccccc1NC(=O)CSC1=C(C#N)C(c2ccsc2)CC(=O)N1` (stereo unspecified), the Potency is reported as inconclusive: 11.2 µM [inhibitor, partial curve]. With `N#CC1=C(N)Oc2n[nH]c(-c3cccs3)c2C1c1ccoc1` (stereo unspecified) the Potency was “inactive”. In the case of `O=C(O)CCN1C(=O)c2ccccc2Sc2ncccc21`, the Potency is reported as “inactive”. With `Cc1c(=O)n(OCc2ccccc2)c2ccccc2[n+]1[O-]` the Potency was inconclusive: 35.5 µM [inhibitor, single point]. For `Cc1nnc(N2C(=O)C(O)=C(C(=O)c3ccco3)C2c2ccc(C(C)(C)C)cc2)s1` (stereo unspecified), the Potency was “inactive”. `Cc1cc(C)cc(N=Cc2ccc([N+](=O)[O-])s2)c1` was tested, and the Potency was inconclusive: 25.1 µM [inhibitor, single point]. For `O=C(/C=C\c1ccco1)c1ccc(NC(=O)c2ccco2)cc1`, the Potency was “inactive”. In the case of `c1ccc(N2CCN(c3nc4ccccc4n4nnnc34)CC2)cc1`, the Potency is reported as “inactive”. For `Cc1cn2c(=O)cc(COc3cccc(NC(=O)c4ccc(C(C)(C)C)cc4)c3)nc2s1`, the Potency was “inactive”. `[O-][N+]12CCCc3cccc(c31)CCC2` was tested, and the Potency was “inactive”. In the case of `Cc1cccc(Cn2cc(/C=C/[N+](=O)[O-])c3ccccc32)c1`, the Potency is reported as inconclusive: 31.6 µM [inhibitor, single point]. For `CN1CCN(C(=O)CCN2C(=O)/C(=C/c3cccc(Br)c3)SC2=S)CC1`, the Potency was inconclusive: 35.5 µM [inhibitor, single point]. `O=C(NC(NC(=S)Nc1cc(Cl)ccc1Cl)C(Cl)(Cl)Cl)c1ccco1` (stereo unspecified) was tested, and the Potency was “inactive”. For `O=c1[nH]c(/C=C/c2ccccn2)nc2ccccc12`, the Potency was inconclusive: 35.5 µM [inhibitor, single point]. `COc1ccc(-c2ccoc2)cc1C1C2C=CCC(C)C2C(=O)N1Cc1ccccc1` (stereo unspecified) was tested, and the Potency was inconclusive: 15.8 µM [inhibitor, single point]. In the case of `CCOC(=O)CCSc1nc(C)cc(C(F)(F)F)c1C#N`, the Potency is reported as inconclusive: 15.8 µM [inhibitor, partial curve, poor fit]. With `CCN1CCN(Cc2ccc(NC(=O)c3ccc(C)c(NC(=O)C(=O)c4c[nH]c5ccccc45)c3)cc2C(F)(F)F)CC1` the Potency was inconclusive: 35.5 µM [inhibitor, partial curve, poor fit] and inconclusive: 35.5 µM [inhibitor, single point]. With `COc1ccc(CCN2CN(S(=O)(=O)c3ccc(OC)cc3)c3nc4ccccc4nc32)cc1` the Potency was inconclusive: 12.6 µM [inhibitor, single point]. With `COc1ccc(N(CC(=O)Nc2ccc(C)cc2C)S(=O)(=O)c2c(C)n[nH]c2C)cc1` the Potency was inconclusive: 35.5 µM [inhibitor, single point]. For `Cc1ccc(CSC(Nc2ccc(F)cc2)=C(C#N)C#N)cc1`, the Potency was “inactive”. For `COc1ccc(C2=Nn3c(nnc3C(F)(F)F)SC2)cc1`, the Potency was inconclusive: 15.8 µM [inhibitor, single point]. For `COc1ccc(NS(=O)(=O)c2ccc(O)c(C(=O)OCC(=O)NC(C)C3CC4CCC3C4)c2)cc1` (stereo unspecified), the Potency was “inactive”. With `COc1ccc(-c2nnc(SCC(=O)Nc3ncc(C)s3)n2-c2ccccc2)cc1OC` the Potency was inconclusive: 7.08 µM [inhibitor, partial curve]. `COc1ccccc1-n1cc(-c2ccccc2)c2c(=S)nc[nH]c21` was tested, and the Potency was inconclusive: 2.24 µM [inhibitor, partial curve, poor fit]. In the case of `COc1ccc(C(=O)c2cc([N+](=O)[O-])ccc2N2CCN(C)CC2)cc1`, the Potency is reported as inconclusive: 6.31 µM [inhibitor, full curve]. For `COc1cccc(-c2cc(=O)c3cc(NC(=O)c4ccc(N(C)C)cc4)ccc3[nH]2)c1`, the Potency was inconclusive: 1.12 µM [inhibitor, full curve, poor fit]. `CCCc1oc2ccc(NS(=O)(=O)c3ccc(OCC)cc3)cc2c1C(=O)OCC` was tested, and the Potency was inconclusive: 1.78 µM [inhibitor, full curve, poor fit]. For `Nc1ccc(C(=O)Nc2nc3ccccc3s2)cc1`, the Potency was inconclusive: 35.5 µM [inhibitor, single point]. With `O=c1c2cc([N+](=O)[O-])cc([N+](=O)[O-])c2[nH]n1-c1ccccc1` the Potency was “inactive”. For `CCc1cccc2c(C(O)c3c[nH]c4ccccc34)c[nH]c12` (stereo unspecified), the Potency was inconclusive: 22.4 µM [inhibitor, partial curve, poor fit]. For `COc1ccc(C2C3=C(COC3=O)Oc3cc4c(cc32)OCO4)cc1OC` (stereo unspecified), the Potency was inconclusive: 1.26 µM [inhibitor, full curve, poor fit] and inconclusive: 1.58 µM [inhibitor, full curve, poor fit].

— PubChem BioAssay AID602310 (National Center for Advancing Translational Sciences (NCATS), 2012)
Further: nearly all actives have a fitted effect of over 60% in size.
Potency means the concentration at half of the fitted maximal effect; tags describe the fitted curve by direction and shape.
